From PMC2442059
Results are given in words; binding and its absence hold for the method and conditions named. Binding seen in cells or lysates may run through a third protein. Some results given as binding are weak or reduced against the parent protein; the word gives no strength.

Sequences of proteins named here, by UniProt entry; tags and fusion partners are left off. Residues count along the entry.
UniProt P09055, residues 21-798: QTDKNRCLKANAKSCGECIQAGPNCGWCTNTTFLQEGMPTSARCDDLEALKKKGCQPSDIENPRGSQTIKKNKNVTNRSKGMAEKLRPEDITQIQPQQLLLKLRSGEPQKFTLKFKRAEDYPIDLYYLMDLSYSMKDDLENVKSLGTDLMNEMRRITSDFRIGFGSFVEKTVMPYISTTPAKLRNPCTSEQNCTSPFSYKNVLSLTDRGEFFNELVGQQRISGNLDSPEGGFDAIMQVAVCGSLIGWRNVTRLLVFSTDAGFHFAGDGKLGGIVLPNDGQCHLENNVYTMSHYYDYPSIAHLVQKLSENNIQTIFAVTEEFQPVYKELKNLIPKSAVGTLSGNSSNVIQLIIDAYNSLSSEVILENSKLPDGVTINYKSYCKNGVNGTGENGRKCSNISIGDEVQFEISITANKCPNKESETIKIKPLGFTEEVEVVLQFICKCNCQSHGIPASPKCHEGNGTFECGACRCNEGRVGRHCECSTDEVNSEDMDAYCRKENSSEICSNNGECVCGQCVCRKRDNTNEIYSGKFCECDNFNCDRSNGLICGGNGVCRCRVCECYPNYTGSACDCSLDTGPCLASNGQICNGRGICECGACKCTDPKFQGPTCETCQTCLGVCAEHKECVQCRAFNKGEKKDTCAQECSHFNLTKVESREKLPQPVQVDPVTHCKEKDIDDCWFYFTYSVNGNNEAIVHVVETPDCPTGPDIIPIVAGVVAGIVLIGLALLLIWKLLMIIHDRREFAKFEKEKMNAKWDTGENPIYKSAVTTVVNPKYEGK

Molecular target: FLAG-tagged murine Integrin β1 (mouse) (UniProt P09055)
Assay: co-IP; CHO cells transiently co-transfected, lysed after 48 h in 1% NP-40 STEN buffer (150 mM NaCl, 50 mM Tris, 2 mM EDTA); immunoprecipitated with M2 anti-FLAG agarose; western blot

binding: binds
B1: APLP1 (protein, UniProt P51693 39-650)
chain: SLAGGSPGAAEAPGSAQVAGLCGRLTLHRDLRTGRWEPDPQRSRRCLRDPQRVLEYCRQMYPELQIARVEQATQAIPMERWCGGSRSGSCAHPHHQVVPFRCLPGEFVSEALLVPEGCRFLHQERMDQCESSTRRHQEAQEACSSQGLILHGSGMLLPCGSDRFRGVEYVCCPPPGTPDPSGTAVGDPSTRSWPPGSRVEGAEDEEEEESFPQPVDDYFVEPPQAEEEEETVPPPSSHTLAVVGKVTPTPRPTDGVDIYFGMPGEISEHEGFLRAKMDLEERRMRQINEVMREWAMADNQSKNLPKADRQALNEHFQSILQTLEEQVSGERQRLVETHATRVIALINDQRRAALEGFLAALQADPPQAERVLLALRRYLRAEQKEQRHTLRHYQHVAAVDPEKAQQMRFQVHTHLQVIEERVNQSLGLLDQNPHLAQELRPQIQELLHSEHLGPSELEAPAPGGSSEDKGGLQPPDSKDDTPMTLPKGSTEQDAASPEKEKMNPLEQYERKVNASVPRGFPFHSSEIQRDELAPAGTGVSREAVSGLLIMGAGGGSLIVLSMLLLRRKKPYGAISHGVVEVDPMLTLEEQQLRELQRHGYENPTYRFLEERP
